Assay results published in the supplement of paper PMC3334620.
In all, about 33,000 sequences were measured (“E-score (-0.5 to 0.5)”: median about -0.043, highest 2% from about 0.37 on). Some of the results follow.

Target: T1, Upc2 (UniProt Q12151)
T1 sequence: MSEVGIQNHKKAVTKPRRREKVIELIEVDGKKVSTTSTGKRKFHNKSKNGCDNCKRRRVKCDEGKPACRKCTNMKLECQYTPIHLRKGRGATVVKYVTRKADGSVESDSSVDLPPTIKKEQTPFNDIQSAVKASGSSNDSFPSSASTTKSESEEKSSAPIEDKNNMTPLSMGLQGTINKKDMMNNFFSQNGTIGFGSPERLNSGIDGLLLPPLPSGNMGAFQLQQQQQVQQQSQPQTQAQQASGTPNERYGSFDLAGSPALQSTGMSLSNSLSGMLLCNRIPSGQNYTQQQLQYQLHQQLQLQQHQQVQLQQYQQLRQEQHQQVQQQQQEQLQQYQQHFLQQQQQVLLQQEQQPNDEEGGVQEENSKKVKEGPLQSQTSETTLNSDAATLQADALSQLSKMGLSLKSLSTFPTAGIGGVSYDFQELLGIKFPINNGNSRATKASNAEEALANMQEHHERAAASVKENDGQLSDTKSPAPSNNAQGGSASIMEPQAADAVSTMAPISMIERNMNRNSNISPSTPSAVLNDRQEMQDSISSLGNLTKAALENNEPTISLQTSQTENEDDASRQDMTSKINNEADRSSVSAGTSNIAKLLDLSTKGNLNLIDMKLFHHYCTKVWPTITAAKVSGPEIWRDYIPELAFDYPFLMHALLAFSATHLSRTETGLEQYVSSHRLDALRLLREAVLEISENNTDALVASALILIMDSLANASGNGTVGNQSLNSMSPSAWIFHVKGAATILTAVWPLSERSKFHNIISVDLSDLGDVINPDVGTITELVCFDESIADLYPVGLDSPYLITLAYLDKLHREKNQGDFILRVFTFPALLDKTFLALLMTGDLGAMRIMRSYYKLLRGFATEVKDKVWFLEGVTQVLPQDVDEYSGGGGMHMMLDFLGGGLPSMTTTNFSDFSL
Test: PBM E-score (8-mer binding enrichment) (E-score (-0.5 to 0.5)); higher = stronger / more preferred TF binding; most listed sequences are background and not binding sites
Conditions: protein concentration: 200 nM; construct: GST-full length
In short: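 GST-tagged yeast TFs (full-length or DNA-binding domain) were made by PURExpress in vitro transcription/translation and applied at about 100-200 nM to universal all-10-mer Agilent arrays. The arrays were made double-stranded by primer extension, on fresh or once-stripped slides. Bound protein was detected with fluorescent anti-GST, and scans were normalised with masliner. Each ungapped eight-base word, pooled with its reverse complement, received an E-score (modified Wilcoxon-Mann-Whitney statistic) from the Universal PBM Analysis Suite.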

Going from ACCGTAGA to AACCACCG, the “PBM E-score” value falls from 0.178 to -0.0167.

Compared with ACGCGGAA, CTATCGAA is lower in “PBM E-score” value: 0.109 for the first, -0.056 for the second.

Compared with GTACTTCA, AGCACTCA is lower in “PBM E-score” value: 0.169 for the first, -0.0177 for the second.

Compared with GACATTTA, CATCATCA is lower in “PBM E-score” value: -0.123 for the first, -0.231 for the second.

Compared with AAGGGCGG, CGTACACG is higher in “PBM E-score” value: -0.201 for the first, 0.423 for the second.

Going from CATGCAAA to CATCTCAG, the “PBM E-score” value falls from 0.151 to -0.122.

First: ACGACACC
Second: CAGCTGCG
The “PBM E-score” value of the first is higher: 0.374 for the first, 0.0645 for the second.

First: ACCCGGTG
Second: CAAATGGC
The “PBM E-score” value of the first is higher: -0.0394 for the first, -0.173 for the second.

Going from ACGATGAA to CGTTGGAC, the “PBM E-score” value falls from 0.312 to -0.184.

Compared with AAAGAAGA, ACGGTGGC is higher in “PBM E-score” value: -0.103 for the first, 0.0835 for the second.

Going from CCGGTATC to AACGCAGG, the “PBM E-score” value rises from -0.105 to 0.02.

Compared with GACTTGGA, CGACGAAA is higher in “PBM E-score” value: -0.105 for the first, 0.23 for the second.

Going from CGGTCTGC to AATTCCAT, the “PBM E-score” value falls from -0.0217 to -0.117.

Compared with ATTGTCCC, GATAACCC is higher in “PBM E-score” value: -0.263 for the first, -0.111 for the second.

Compared with AGTTAAAA, GCCCCTAC is lower in “PBM E-score” value: 0.102 for the first, -0.096 for the second.

Compared with GGATAGCC, ACAAGGTA is lower in “PBM E-score” value: 0.178 for the first, 0.104 for the second.

Going from CCGAACAC to GTAGTCAA, the “PBM E-score” value rises from -0.051 to 0.121.

First: CGGGAACC
Second: AAGTGTTC
The “PBM E-score” value of the first is lower: -0.12 for the first, 0.0334 for the second.

Compared with AAGTATGA, TCGTAAGA is higher in “PBM E-score” value: 0.0389 for the first, 0.399 for the second.

Going from GTGTAACA to AAGAGAAT, the “PBM E-score” value rises from -0.158 to -0.0543.

Going from ATTGCTAC to CTCTGAGC, the “PBM E-score” value falls from 0.206 to -0.0489.

First: AAAGGACC
Second: AACACTCG
The “PBM E-score” value of the first is lower: -0.0923 for the first, 0.208 for the second.

First: GGTCCACA
Second: CTGGCCCC
The “PBM E-score” value of the first is lower: -0.166 for the first, -0.124 for the second.

First: CTACTGGC
Second: CTCCAGCA
The “PBM E-score” value of the first is lower: -0.171 for the first, -0.0247 for the second.

Going from ATGACCAA to AATAGCGC, the “PBM E-score” value rises from -0.0518 to -0.0328.

Compared with AAATGAGG, ATGTCGAC is higher in “PBM E-score” value: -0.278 for the first, 0.00622 for the second.

First: GCCTCGCC
Second: GTCATGAA
The “PBM E-score” value of the first is lower: -0.0504 for the first, 0.00612 for the second.

First: AATGTGAT
Second: CTCGTCCA
The “PBM E-score” value of the first is lower: -0.0846 for the first, -0.0829 for the second.

Compared with AAGATCGA, AGGGTGTA is higher in “PBM E-score” value: -0.0207 for the first, 0.00084 for the second.

Going from AGGCTACT to GATTCACC, the “PBM E-score” value falls from -0.128 to -0.129.

First: GTCGACCA
Second: AGCGCACC
The “PBM E-score” value of the first is higher: 0.0671 for the first, -0.0506 for the second.

Compared with ACGGTCGC, TCGACGCA is lower in “PBM E-score” value: 0.131 for the first, -0.0783 for the second.

First: CATTAAGC
Second: CTGTCATC
The “PBM E-score” value of the first is higher: 0.0328 for the first, -0.116 for the second.

Going from GTATATAC to AAACTCCG, the “PBM E-score” value falls from 0.395 to -0.0818.

Compared with ACCTTTAA, CACTAGCG is lower in “PBM E-score” value: 0.123 for the first, -0.212 for the second.

Compared with CCAGGGTA, GCGGGCTA is lower in “PBM E-score” value: -0.104 for the first, -0.181 for the second.

First: GATTACTA
Second: AAACCCCG
The “PBM E-score” value of the first is higher: 0.0816 for the first, -0.0877 for the second.

Going from ACGAGCAT to CCGTACTA, the “PBM E-score” value falls from 0.335 to 0.282.

Compared with CAAGGTCC, AGCTTTCG is higher in “PBM E-score” value: -0.0738 for the first, 0.0143 for the second.

Compared with GCACAAGA, TCCCGAGA is higher in “PBM E-score” value: -0.0394 for the first, 0.0475 for the second.

First: GTCACCAC
Second: ACCAACGA
The “PBM E-score” value of the first is lower: -0.0561 for the first, 0.103 for the second.

Going from CTTTGGAC to CAAGCCTA, the “PBM E-score” value rises from -0.107 to -0.0953.

Going from ATTCTCGG to ACTAAGAA, the “PBM E-score” value falls from 0.124 to -0.0494.

Compared with AGGAACAA, TACATTGA is lower in “PBM E-score” value: -0.0237 for the first, -0.165 for the second.

Compared with TATGAGGA, AGTTCGGC is higher in “PBM E-score” value: -0.144 for the first, -0.00631 for the second.

First: ACGTTACG
Second: TATCCCAA
The “PBM E-score” value of the first is higher: 0.346 for the first, 0.0297 for the second.

Compared with ACGACACG, GTAACCCA is lower in “PBM E-score” value: 0.295 for the first, 0.217 for the second.

Compared with AGACTTAG, CATATCAC is higher in “PBM E-score” value: -0.263 for the first, 0.0559 for the second.

Going from ATTGTAGC to AGGTATCA, the “PBM E-score” value falls from 0.00408 to -0.208.

First: ATCTATCC
Second: CCCACTCA
The “PBM E-score” value of the first is lower: -0.21 for the first, -0.112 for the second.

First: CCTAGTTA
Second: CATCGTAG
The “PBM E-score” value of the first is lower: -0.143 for the first, 0.295 for the second.

First: ACGCTTAC
Second: ACGAGTCC
The “PBM E-score” value of the first is lower: 0.111 for the first, 0.337 for the second.

Going from GGCCATAC to GGACCAAA, the “PBM E-score” value falls from 0.164 to 0.0431.

Going from CGTGTAGC to CCGAACAG, the “PBM E-score” value rises from 0.164 to 0.17.

Going from ACTCTAAC to GATGAATC, the “PBM E-score” value falls from -0.0897 to -0.0918.

First: ACAAAATA
Second: AATTCTTG
The “PBM E-score” value of the first is lower: -0.0444 for the first, -0.0346 for the second.

Compared with AGTCGCAC, AGTGAGTG is lower in “PBM E-score” value: 0.204 for the first, -0.142 for the second.

Going from CGATTCCC to AGCCGCCC, the “PBM E-score” value falls from -0.0861 to -0.123.

Compared with CTATACTC, CTCGCGGC is lower in “PBM E-score” value: 0.0215 for the first, -0.0185 for the second.

Compared with GCCAGTGA, CGCTGAAC is higher in “PBM E-score” value: -0.304 for the first, 0.249 for the second.

Compared with AACGACGC, ACTCTCCA is lower in “PBM E-score” value: 0.442 for the first, -0.117 for the second.

Going from ATCCCTTC to CGCCCAAA, the “PBM E-score” value falls from -0.0437 to -0.0966.

Going from CAACCCGC to CTTGAACC, the “PBM E-score” value falls from 0.0141 to -0.0572.

Going from AATATATT to TCACAGAA, the “PBM E-score” value falls from 0.146 to -0.0814.

Compared with GACAGCCA, CCATAAAA is higher in “PBM E-score” value: -0.204 for the first, -0.131 for the second.

Compared with ACAATATG, ACATCACC is lower in “PBM E-score” value: -0.0983 for the first, -0.127 for the second.

Going from AACGCCTG to CACTTACG, the “PBM E-score” value rises from 0.0818 to 0.335.

Going from CCTGAAAG to AGGCAACG, the “PBM E-score” value rises from -0.123 to -0.0576.

First: GATTGGTA
Second: CTTTGTGA
The “PBM E-score” value of the first is higher: -0.0647 for the first, -0.205 for the second.

First: CCTTCTCA
Second: AGCTTTGA
The “PBM E-score” value of the first is lower: -0.115 for the first, -0.0856 for the second.

Compared with CGGAAGTC, ACCCGGCC is lower in “PBM E-score” value: 0.152 for the first, -0.121 for the second.

First: AAAGAGTA
Second: GCGCGCGC
The “PBM E-score” value of the first is lower: -0.162 for the first, 0.131 for the second.

Going from GGCCCTAC to GACCCCTC, the “PBM E-score” value falls from -0.0996 to -0.255.

Compared with GACCACAC, AGAAGGCT is lower in “PBM E-score” value: -0.0889 for the first, -0.268 for the second.

Compared with GGGAGTGA, CCTGACCC is higher in “PBM E-score” value: -0.192 for the first, -0.181 for the second.

Going from TACGGTAA to CAGCGCTA, the “PBM E-score” value falls from 0.354 to 0.0254.

First: CTAACCAA
Second: CAGGGTAC
The “PBM E-score” value of the first is lower: -0.0886 for the first, 0.0183 for the second.

First: CAGCCGGC
Second: AACCCGAT
The “PBM E-score” value of the first is lower: -0.00215 for the first, 0.121 for the second.

Compared with CCGTAGTA, GGCTTCAA is higher in “PBM E-score” value: -0.105 for the first, -0.0553 for the second.

First: ATACTGAT
Second: GCTGAACA
The “PBM E-score” value of the first is higher: 0.146 for the first, -0.103 for the second.

First: CCTCGAAG
Second: ATAAAGTC
The “PBM E-score” value of the first is lower: -0.0923 for the first, 0.0783 for the second.

Compared with AGGTTATA, AGATAAGC is lower in “PBM E-score” value: 0.14 for the first, 0.0651 for the second.

First: CGTAAGTA
Second: CCCAAAGG
The “PBM E-score” value of the first is higher: 0.216 for the first, -0.169 for the second.

Going from CTCACATC to AGTAAGCC, the “PBM E-score” value falls from -0.0489 to -0.155.

First: AAGGTCTG
Second: ATTTCGCA
The “PBM E-score” value of the first is lower: -0.163 for the first, 0.17 for the second.

First: CCAATTCG
Second: CCTCTTAA
The “PBM E-score” value of the first is higher: 0.15 for the first, 0.14 for the second.
